Source: the supplement of paper PMC4166925
± gives the standard deviation of the averaged measurements. In all, about 33,000 sequences were measured (“E-score (dimensionless, -0.5 to 0.5)”: median about -0.046, highest 2% from about 0.36 on). Some of the results follow.

system: T1, SpTbr T-box DNA-binding domain (GST fusion); experiment: PBM E-score of 8-mer (E-score (dimensionless, -0.5 to 0.5)); Tbr is Tbrain of the sea star Patiria miniata (Pm) or the sea urchin Strongylocentrotus purpuratus (Sp); higher = stronger binding preference; most listed sequences are background and not binding sites; settings: the construct has about 5 more residues each side
T1 sequence: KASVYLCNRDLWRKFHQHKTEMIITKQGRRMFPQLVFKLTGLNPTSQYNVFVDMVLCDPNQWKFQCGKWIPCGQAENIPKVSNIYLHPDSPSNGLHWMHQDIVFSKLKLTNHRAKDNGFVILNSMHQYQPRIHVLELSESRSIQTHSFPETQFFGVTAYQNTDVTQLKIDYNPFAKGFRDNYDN
Procedure, shortened: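 Primer extension turned Universal Agilent oligonucleotide arrays double-stranded. They were incubated with 200 nM protein in PBS (pH 7.5); the protein was a GST-fused Tbr T-box DNA-binding domain expressed in BL21 E. coli at 20 °C and purified on glutathione. Every ungapped 8-mer was scored from the scanned, quantified probe intensities, and the Universal PBM Analysis Suite gave each an enrichment E-score averaged over duplicate arrays.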

In order of falling “PBM E-score of 8-mer” value:
1. ATTCGCAC  0.4705 ± 0.0024
2. AGGTGCGG  0.429 ± 0.025
3. ATTTACAC  0.356 ± 0.0092
4. ACACCCGT  0.344 ± 0.017
5. ACACTTAA  0.336 ± 0.027
6. GCGGCACC  0.301 ± 0.058
7. CTCGCAAC  0.3 ± 0.043
8. CCACACTA  0.279 ± 0.029
9. GTGCCGAA  0.267 ± 0.0096
10. CATCGCGC  0.259 ± 0.032
11. AACTCGCA  0.251 ± 0.033
12. AAGGTGGT  0.247 ± 0.033
13. GAAATCGC  0.242 ± 0.0076
14. AGTGTGTC  0.234 ± 0.06
15. CACATATA  0.225 ± 0.013
16. CATTGGCA  0.206 ± 0.018
17. TGTGCACA  0.182 ± 0.021
18. GCCACCCC  0.181 ± 0.081
19. ACGTGGCG  0.172 ± 0.063
20. CACATCGA  0.151 ± 0.036
21. TCGTTTCA  0.149 ± 0.09
22. GGTGCACA  0.149 ± 0.055
23. ACGTGGTA  0.138 ± 0.0042
24. GCTGCGAC  0.137 ± 0.059
25. ACATTGCC  0.134 ± 0.024
26. CTTGACGA  0.131 ± 0.038
27. ACGACAAT  0.13 ± 0.0098
28. ACAGACGT  0.126 ± 0.022
29. AAGTCGAT  0.126 ± 0.046
30. CGGCTAGC  0.1221 ± 0.0011
31. AATAACAG  0.12 ± 0.017
32. AAGTTAGC  0.118 ± 0.051
33. CAAAGTTG  0.114 ± 0.052
34. CATGAACA  0.0999 ± 0.012
35. ACCACTAA  0.0893 ± 0.044
36. AGCGATAC  0.0863 ± 0.017
37. AGCGGGTC  0.0862 ± 0.036
38. ACTCCTCT  0.0856 ± 0.0041
39. CGGCTAAC  0.0839 ± 0.024
40. GCACATTA  0.0802 ± 0.043
41. GCAAGTTA  0.0663 ± 0.0025
42. GACAGCAC  0.0659 ± 0.049
43. CGAGTCGA  0.0653 ± 0.018
44. CTCACGAA  0.0622 ± 0.021
45. TCCCCGCA  0.0619 ± 0.076
46. ATACTAGC  0.0611 ± 0.12
47. AATATTGG  0.0593 ± 0.03
48. ACCTCGCT  0.0573 ± 0.075
49. ACCGCACT  0.0559 ± 0.036
50. CACGACAG  0.0547 ± 0.024
51. AGCCCCAA  0.0539 ± 0.0008
52. ATACCCGC  0.0508 ± 0.029
53. TCTGCTAA  0.0482 ± 0.015
54. CATAGTGC  0.0466 ± 0.013
55. CAACAGGA  0.04179 ± 0.00038
56. CCGTTAGA  0.0367 ± 0.017
57. GAATGTAC  0.0332 ± 0.024
58. AGGAGGGG  0.0237 ± 0.0028
59. AACTGTTC  0.0151 ± 0.0031
60. CAGATAGG  0.0129 ± 0.0034
61. AACTCACT  0.0115 ± 0.0061
62. AATCCAGC  0.0114 ± 0.0064
63. TATATAGA  0.0105 ± 0.0057
64. AAACAGTC  0.0102 ± 0.034
65. GATACCAA  0.00881 ± 0.084
66. AATGGTTG  0.00509 ± 0.024
67. CGCGGAGC  0.00248 ± 0.026
68. GCCTACGC  -0.00188 ± 0.037
69. CAGAAAAG  -0.0037 ± 0.07
70. ACGTGGTC  -0.00463 ± 0.035
71. GGATCAAC  -0.00787 ± 0.008
72. CGTTAGAC  -0.00874 ± 0.0054
73. AACCCCGT  -0.0114 ± 0.02
74. AGTTAATG  -0.0117 ± 0.043
75. CAAACTCG  -0.0126 ± 0.039
76. GATAGAGA  -0.0162 ± 0.011
77. GCAGACGA  -0.0166 ± 0.058
78. GCCTATTA  -0.0188 ± 0.076
79. GTCCGAAA  -0.0192 ± 0.0055
80. CTATTCTC  -0.0236 ± 0.035
81. ATACGACG  -0.035 ± 0.047
82. CCGGCCAG  -0.0406 ± 0.046
83. CCTATGTC  -0.0414 ± 0.13
84. GTTCGAAC  -0.0456 ± 0.057
85. ACGCGCAG  -0.0458 ± 0.074
86. TAGAGATA  -0.0507 ± 0.0039
87. CGCAAGGA  -0.051 ± 0.018
88. ATCTGTCC  -0.0512 ± 0.0045
89. AAGGGGAT  -0.0523 ± 0.031
90. AAGGAAAT  -0.0532 ± 0.0098
91. AACGTTAA  -0.0537 ± 0.032
92. CGGCTTAC  -0.0541 ± 0.015
93. CATTGATA  -0.05604 ± 0.0005
94. AGCCCGTC  -0.0589 ± 0.022
95. AGGCCGCG  -0.0663 ± 0.042
96. CTGGGCAC  -0.0696 ± 0.088
97. CGCAGCAG  -0.0698 ± 0.043
98. CGAGAGTC  -0.0698 ± 0.061
99. GATACTCC  -0.0707 ± 0.0073
100. CGGGAGAG  -0.0707 ± 0.1
101. CCGACGTC  -0.0738 ± 0.039
102. AAGAACAT  -0.0743 ± 0.032
103. GCCTAGAC  -0.0826 ± 0.058
104. ATATTCCG  -0.0864 ± 0.045
105. CTGGAGAA  -0.0875 ± 0.047
106. CCCGTTGC  -0.0897 ± 0.17
107. CAATGTAC  -0.0989 ± 0.0078
108. AGGCAGGA  -0.1 ± 0.01
109. AGTCTTGG  -0.101 ± 0.011
110. AGTTGTAC  -0.102 ± 0.014
111. CCCACGCA  -0.102 ± 0.046
112. CTTGCTAC  -0.104 ± 0.024
113. ATGCTCTC  -0.106 ± 0.061
114. CAGTATAA  -0.11 ± 0.025
115. CATACTAA  -0.113 ± 0.018
116. AAGACAGA  -0.113 ± 0.0064
117. ACTCATCT  -0.115 ± 0.019
118. GAACGGAA  -0.116 ± 0.005
119. GGCCAAAC  -0.12 ± 0.07
120. GATTTCCC  -0.123 ± 0.072
121. AATAATAG  -0.124 ± 0.0046
122. GGTTTGAA  -0.128 ± 0.026
123. AAAACGAA  -0.137 ± 0.18
124. CTGAATAC  -0.137 ± 0.046
125. CCTATTTA  -0.143 ± 0.081
126. GACAGAAA  -0.144 ± 0.053
127. CCTAGCCA  -0.144 ± 0.018
128. CAAAGAAG  -0.145 ± 0.064
129. AAGAACAG  -0.146 ± 0.019
130. TGAAGTCA  -0.147 ± 0.078
131. AAGAGAAC  -0.148 ± 0.085
132. AGCGAATC  -0.151 ± 0.019
133. AAATTGAA  -0.155 ± 0.028
134. ATCGAAAG  -0.156 ± 0.057
135. CCCCATTA  -0.157 ± 0.038
136. CAAATGAG  -0.158 ± 0.037
137. CAAAAAAG  -0.164 ± 0.076
138. CAATTCGG  -0.165 ± 0.061
139. ACCGGAAT  -0.166 ± 0.0071
140. ACTGATAA  -0.169 ± 0.073
141. AGTATGAG  -0.1691 ± 0.0014
142. CGGATGCC  -0.171 ± 0.063
143. ATTAGGAA  -0.173 ± 0.0093
144. GATGACTA  -0.175 ± 0.027
145. TCATGCAA  -0.175 ± 0.02
146. CGAACAAG  -0.176 ± 0.0081
147. AATTCTCC  -0.177 ± 0.044
148. AAGAACGC  -0.181 ± 0.096
149. CTGACCCA  -0.181 ± 0.057
150. AGTCGAAG  -0.182 ± 0.042
151. ATTGGTTG  -0.192 ± 0.031
152. GCATGATA  -0.204 ± 0.044
153. CAACGTAG  -0.206 ± 0.026
154. ACTGGATA  -0.212 ± 0.0083
155. ATATGGGA  -0.219 ± 0.059
156. CCAGTCAG  -0.219 ± 0.057
157. GGGCTATA  -0.219 ± 0.015
158. AAAGTATG  -0.229 ± 0.12
159. CCATGGAG  -0.231 ± 0.015
160. AGCGGACT  -0.233 ± 0.029
161. CTTAAGGA  -0.233 ± 0.015
162. AAACATTT  -0.245 ± 0.056
163. CGCTCTTA  -0.254 ± 0.016
164. AAATCTCC  -0.259 ± 0.018
165. ATTAGAGA  -0.263 ± 0.018
166. CCCCCTAG  -0.273 ± 0.062
167. GATACCCC  -0.273 ± 0.041
168. AGGAACCC  -0.3 ± 0.045
169. CCCTGGAC  -0.304 ± 0.012
170. CTACGGGA  -0.307 ± 0.03
171. ATGTAGGG  -0.355 ± 0.013
172. ATTAATCC  -0.3717 ± 0.0021
